# Reference: the supplement of paper PMC8728848
# The list shows a part of the results.
# B1: DrGal3 (Danio rerio) (protein)
# chain: MDLSDALDAPPQQNNQQAGGPVWPGQPANPVWPGQPANPTWPGQPNQPAWPGQPNQQWPGQPGQPTAPGWPGPAPQTGPYGAPGQAPQVLTVPLDFPLQNGAYNKMLITINGEVKPNAKQFTVNLRRGNDIAFHINPRFSEGGKPVIVRNSMIGNNWGREERELPSFPFVPGKPFEMKILITDTEYKVAVNKSHLLEFKHRVFELNQITGLSIYNDVTLSTVNVETLQ
# Columns and labels:
# Assay in all cases: glycan array binding signal (z-score within array); higher = stronger binding
# Conditions in all cases: glycan notation: IUPAC condensed, linker removed
# [1] = target: Gal(b1-4)GalNAc(b1-3)[Fuc(a1-2)]Gal(b1-4)GlcNAc
# Outline: (§1)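 Columns mapping to the same glycan were averaged after glycan names were converted to IUPAC-condensed notation. The data come from 3228 arrays in the Consortium for Functional Glycomics database, limited to those with an available protein sequence. Binding is reported as a within-array Z-score averaged across arrays of one protein sequence and across linkers.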
# Gal(b1-4)Glc = target: Gal(b1-4)Glc
# Outline: as §1
# Gal(b1-4)Glc6S = target: Gal(b1-4)Glc6S
# Outline: as §1
# Gal(b1-4)GlcNAc = target: Gal(b1-4)GlcNAc
# Outline: as §1
# [2] = target: Gal(b1-4)GlcNAc(a1-6)Gal(b1-4)GlcNAc
# Outline: as §1
# Gal(b1-4)GlcNAc(b1-2)Man = target: Gal(b1-4)GlcNAc(b1-2)Man
# Outline: as §1
# [3] = target: Gal(b1-4)GlcNAc(b1-2)Man(a1-3)Man(b1-4)GlcNAc(b1-4)GlcNAc
# Outline: as §1
# [4] = target: Gal(b1-4)GlcNAc(b1-2)Man(a1-3)[Gal(b1-4)GlcNAc(b1-2)Man(a1-6)]Man(b1-4)GlcNAc(b1-4)GlcNAc
# Outline: as §1
# [5] = target: Gal(b1-4)GlcNAc(b1-2)Man(a1-3)[Gal(b1-4)GlcNAc(b1-2)Man(a1-6)]Man(b1-4)GlcNAc(b1-4)[Fuc(a1-6)]GlcNAc
# Outline: as §1
# [6] = target: Gal(b1-4)GlcNAc(b1-2)Man(a1-3)[Gal(b1-4)GlcNAc(b1-2)Man(a1-6)][Gal(b1-4)GlcNAc(b1-4)]Man(b1-4)GlcNAc(b1-4)[Fuc(a1-6)]GlcNAc
# Outline: as §1
# [7] = target: Gal(b1-4)GlcNAc(b1-2)Man(a1-3)[Gal(b1-4)GlcNAc(b1-2)Man(a1-6)][GlcNAc(b1-4)]Man(b1-4)GlcNAc(b1-4)[Fuc(a1-6)]GlcNAc
# Outline: as §1
# [8] = target: Gal(b1-4)GlcNAc(b1-2)Man(a1-3)[GlcNAc(b1-2)Man(a1-6)]Man(b1-4)GlcNAc(b1-4)GlcNAc
# Outline: as §1
# [9] = target: Gal(b1-4)GlcNAc(b1-2)Man(a1-3)[GlcNAc(b1-4)][Gal(b1-4)GlcNAc(b1-2)Man(a1-6)]Man(b1-4)GlcNAc(b1-4)GlcNAc
# Outline: as §1
# [10] = target: Gal(b1-4)GlcNAc(b1-2)Man(a1-3)[Man(a1-6)]Man(b1-4)GlcNAc(b1-4)GlcNAc
# Outline: as §1
# [11] = target: Gal(b1-4)GlcNAc(b1-2)Man(a1-6)Man(b1-4)GlcNAc(b1-4)GlcNAc
# Outline: as §1
# [12] = target: Gal(b1-4)GlcNAc(b1-2)Man(a1-6)[GlcNAc(b1-2)Man(a1-3)]Man(b1-4)GlcNAc(b1-4)GlcNAc
# Outline: as §1
# [13] = target: Gal(b1-4)GlcNAc(b1-2)Man(a1-6)[Man(a1-3)]Man(b1-4)GlcNAc(b1-4)GlcNAc
# Outline: as §1
# [14] = target: Gal(b1-4)GlcNAc(b1-2)[Gal(b1-4)GlcNAc(b1-4)]Man(a1-3)[Gal(b1-4)GlcNAc(b1-2)Man(a1-6)]Man(b1-4)GlcNAc(b1-4)GlcNAc
# Outline: as §1
# [15] = target: Gal(b1-4)GlcNAc(b1-2)[Gal(b1-4)GlcNAc(b1-4)]Man(a1-3)[Gal(b1-4)GlcNAc(b1-2)[Gal(b1-4)GlcNAc(b1-6)]Man(a1-6)]Man(b1-4)GlcNAc(b1-4)GlcNAc
# Outline: as §1
# [16] = target: Gal(b1-4)GlcNAc(b1-2)[Gal(b1-4)GlcNAc(b1-4)]Man(a1-3)[GlcNAc(b1-4)][Gal(b1-4)GlcNAc(b1-2)Man(a1-6)]Man(b1-4)GlcNAc(b1-4)GlcNAc
# Outline: as §1
# [17] = target: Gal(b1-4)GlcNAc(b1-2)[Gal(b1-4)GlcNAc(b1-4)]Man(a1-3)[GlcNAc(b1-4)][Gal(b1-4)GlcNAc(b1-2)[Gal(b1-4)GlcNAc(b1-6)]Man(a1-6)]Man(b1-4)GlcNAc(b1-4)GlcNAc
# Outline: as §1
# [18] = target: Gal(b1-4)GlcNAc(b1-2)[Gal(b1-4)GlcNAc(b1-6)]Man(a1-6)[Gal(b1-4)GlcNAc(b1-2)Man(a1-3)]Man(b1-4)GlcNAc(b1-4)GlcNAc
# Outline: as §1
binder,measurement,setting,value
B1,glycan array binding signal (z-score),[1],-0.252
same,glycan array binding signal (z-score),Gal(b1-4)Glc,-0.254
same,glycan array binding signal (z-score),Gal(b1-4)Glc6S,-0.19
same,glycan array binding signal (z-score),Gal(b1-4)GlcNAc,-0.237
same,glycan array binding signal (z-score),[2],-0.216
same,glycan array binding signal (z-score),Gal(b1-4)GlcNAc(b1-2)Man,-0.126
same,glycan array binding signal (z-score),[3],-0.223
same,glycan array binding signal (z-score),[4],-0.262
same,glycan array binding signal (z-score),[5],-0.232
same,glycan array binding signal (z-score),[6],-0.247
same,glycan array binding signal (z-score),[7],-0.281
same,glycan array binding signal (z-score),[8],-0.284
same,glycan array binding signal (z-score),[9],-0.287
same,glycan array binding signal (z-score),[10],-0.152
same,glycan array binding signal (z-score),[11],-0.277
same,glycan array binding signal (z-score),[12],-0.261
same,glycan array binding signal (z-score),[13],-0.24
same,glycan array binding signal (z-score),[14],-0.25
same,glycan array binding signal (z-score),[15],-0.262
same,glycan array binding signal (z-score),[16],-0.262
same,glycan array binding signal (z-score),[17],-0.282
same,glycan array binding signal (z-score),[18],-0.274
